Source: the supplement of paper PMC4967469

Legend:
Experiment in all cases: Viability of human cancer cell lines after 72 h of drug (GDSC screen)
CH5424802 = compound: CCc1cc2c(cc1N1CCC(N3CCOCC3)CC1)C(C)(C)c1[nH]c3cc(C#N)ccc3c1C2=O [CH5424802]; details: top dose 5.12 µM; top dose inferred
Protocol: (§1)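 Human cancer cell lines in 384-well plates, medium with 10% serum, drug for 72 h over a 256-fold dose range (nine 2-fold or five 4-fold steps up to the top dose). Adherent lines were fixed and stained with the nucleic acid dye Syto60, suspension lines read with resazurin; signal relative to control wells, capped at 0 and 100%. One two-parameter sigmoid per drug and line, fitted in a mixed model over all curves with the slope shared within a line.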

CAY10603 = compound: CC(C)(C)OC(=O)Nc1ccc(-c2cc(C(=O)NCCCCCCC(=O)NO)no2)cc1 [CAY10603]; details: top dose 20 µM; top dose inferred
Protocol: as §1

ACHP (KIN001-260) = compound: N#Cc1c(C2CCNCC2)cc(-c2c(O)cccc2OCC2CC2)nc1N [ACHP (KIN001-260)]; details: top dose 20 µM; top dose inferred
Protocol: as §1

Row | Cell Line | AUC (CH5424802) | IC50 (CH5424802) | AUC (CAY10603) | IC50 (CAY10603) | AUC (ACHP (KIN001-260)) | IC50 (ACHP (KIN001-260))
1 | KMOE-2 (acute myeloid leukaemia, suspension) | 0.851 | 3.3 µM | 0.425 | 0.799 µM | 0.936 | > 20 µM
2 | CAL-54 (kidney, adherent) | 0.985 | > 5.12 µM | 0.604 | 2.52 µM | 0.95 | > 20 µM
3 | SNU-175 (large intestine, suspension) | 0.937 | > 5.12 µM | 0.44 | 0.865 µM | 0.929 | > 20 µM
4 | KON (head and neck, adherent) | 0.986 | > 5.12 µM | 0.954 | > 20 µM | 0.987 | > 20 µM
5 | SiHa (cervix, adherent) | 0.986 | > 5.12 µM | 0.987 | > 20 µM | 0.984 | > 20 µM
6 | TE-6 (oesophagus, adherent) | 0.984 | > 5.12 µM | 0.981 | > 20 µM | 0.977 | > 20 µM
7 | RMG-I (ovary, adherent) | 0.983 | > 5.12 µM | 0.583 | 2.2 µM | 0.952 | > 20 µM
8 | OCI-AML2 (acute myeloid leukaemia, suspension) | 0.995 | > 5.12 µM | 0.301 | 0.407 µM | 0.874 | 11.5 µM
9 | RF-48 (stomach, adherent) | 0.982 | > 5.12 µM | 0.227 | 0.178 µM | 0.767 | 8.32 µM
10 | CHL-1 (melanoma, adherent) | 0.986 | > 5.12 µM | 0.357 | 0.514 µM | 0.969 | > 20 µM
11 | KYSE-270 (oesophagus, adherent) | 0.99 | > 5.12 µM | 0.675 | 3.53 µM | 0.957 | > 20 µM
12 | CAL-39 (cervix, adherent) | 0.986 | > 5.12 µM | 0.756 | 7.08 µM | 0.976 | > 20 µM
13 | OE33 (oesophagus, adherent) | 0.952 | > 5.12 µM | 0.552 | 1.78 µM | 0.976 | > 20 µM
14 | DJM-1 (skin, adherent) | 0.989 | > 5.12 µM | 0.893 | > 20 µM | 0.987 | > 20 µM
15 | SNU-182 (liver, adherent) | 0.985 | > 5.12 µM | 0.514 | 1.36 µM | 0.976 | > 20 µM
16 | PA-TU-8988T (pancreas, adherent) | 0.986 | > 5.12 µM | 0.759 | 7.01 µM | 0.978 | > 20 µM
17 | PANC-10-05 (pancreas, adherent) | 0.973 | > 5.12 µM | 0.521 | 1.45 µM | 0.981 | > 20 µM
18 | NCI-H2081 (small cell lung carcinoma, suspension) | 0.985 | > 5.12 µM | 0.723 | 5.59 µM | 0.989 | > 20 µM
19 | KE-37 (lymphoblastic leukaemia, suspension) | 0.992 | > 5.12 µM | 0.237 | 0.276 µM | 0.929 | 19.6 µM

A lower IC50 marks a more sensitive line; a fit beyond the top or the lowest dose is shown as a bound at that dose. The AUC spans the tested range (256-fold, ending at the top dose) of the same fit; it is 1 without any effect and falls as sensitivity rises. A top dose marked as inferred was derived from the fitted curves, not read from the paper.
